Assay in all cases: Primary Screen for Target Class Profiling of Small Molecule Inhibitors of Methyltransferases
In assay [1] the target is Glycine N-methyltransferase (Homo sapiens) (UniProt Q14749). Particulars: purified enzyme, MTase-Glo SAH luminescence; measured here: GNMT inhibition; at 40 µM; stronger effect = lower value. The essentials:
(§1)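 Each enzyme was assayed with SAM and its substrate. SAH formation detected by MTase-Glo luminescence; single-point 40 uM screen[…].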

Assay [2] concerns the target Guanidinoacetate N-methyltransferase (Homo sapiens) (UniProt Q14353). Particulars: purified enzyme, MTase-Glo SAH luminescence; measured here: GAMT inhibition; at 40 µM; stronger effect = lower value. The essentials:
as §1

Assay [3] addresses Histamine N-methyltransferase (Homo sapiens) (UniProt P50135). The settings on record: purified enzyme, MTase-Glo SAH luminescence; measured here: HNMT inhibition; at 40 µM; stronger effect = lower value. The essentials:
as §1

Assay [4] deals with Nicotinamide N-methyltransferase (Homo sapiens) (UniProt P40261). Particulars: purified enzyme, MTase-Glo SAH luminescence; measured here: NNMT inhibition; at 40 µM; stronger effect = lower value. The essentials:
as §1

Assay [5] has as its target Phenylethanolamine N-methyltransferase (Homo sapiens) (UniProt P11086). Particulars: purified enzyme, MTase-Glo SAH luminescence; measured here: PNMT inhibition; at 40 µM; stronger effect = lower value. A digest of the protocol:
as §1

Where “and” joins values, the source holds several entries; their conditions need not be identical. Equal values may be shown once. The list shows a part of the results. These are further read-outs of the screen, such as a control signal, another cell line or another target. No call is given for them.
On the % scale 0 is the no-effect control and ±100 the full control effect.

With `O=C(Nc1ccc2c(c1)OCCO2)N1CCCC(CN2CCOCC2)CC1` (stereo not drawn), the activity change, negative = inhibition in assay [1] is -3.1%; in assay [2] it was 2.54%; in assay [3], -1.28%; in assay [4], 0.751%; in assay [5], -7.15%.

Consider `CC1(C)CC[C@]23CO[C@@]4(CCC5[C@@]6(C)CC[C@H](O[C@@H]7OC[C@H](O[C@@H]8O[C@H](CO)[C@@H](O)[C@H](O)[C@H]8O)[C@H](O)[C@H]7O[C@@H]7O[C@H](CO)[C@@H](O[C@@H]8O[C@H](CO)[C@@H](O)[C@H](O)[C@H]8O)[C@H](O)[C@H]7O)[C@@](C)(CO)C6CC[C@@]5(C)[C@]4(C)C[C@H]2OC2OCC(O)C(O)C2O)C3C1` (stereo partly drawn), for which the activity change, negative = inhibition is 4.06% in assay [1]; 7.63% in assay [2]; 8.82% in assay [3]; -0.769% in assay [4]; 3.28% in assay [5].

With `COC(=O)c1cc2n(n1)CC(C)(C(=O)NC1CCCCC1)N(c1ccc(Cl)cc1C)C2=O` (stereo not drawn), the activity change, negative = inhibition in assay [1] was -2.96%; in assay [2] it was 1.16%; in assay [3], -0.251%; in assay [4], -5.73%; in assay [5] it was -1.38%.

Take `CCCN1C(=O)c2c(C(=O)NCc3cccc(Br)c3)ncn2CC1(C)C(=O)NCc1ccccc1` (stereo not drawn): the activity change, negative = inhibition in assay [1] is -2.23%; in assay [2], 0%; in assay [3], 10.6%; in assay [4], 10.1%; in assay [5], 5.92%.

`COc1ccc(CCc2nc3cc(-c4c(C)noc4C)ccc3n2CC(C)N2CCOCC2)cc1Cl` (stereo not drawn): the activity change, negative = inhibition in assay [1] is -4.85%; in assay [2], -4.58%; in assay [3], 4.47%; in assay [4], -45.8%; in assay [5], -1.77%.

Take `O=C(O)CCC(=O)N1Cc2ccccc2CC2(CCCN(CC3CCOCC3)C2)C1` (stereo not drawn): the activity change, negative = inhibition in assay [1] is -4.41%; in assay [2], -12.2%; in assay [3], -2.21%; in assay [4], -7.21%; in assay [5], -6.16%.

In the case of `CCCn1c(C)cnc1CC1CCN(C(=O)NCc2ccc(OC)cc2)C1` (stereo not drawn), the activity change, negative = inhibition was -0.802% in assay [1]; -0.581% in assay [2]; -52.7% in assay [3]; -1.65% in assay [4]; -1.27% in assay [5].

Consider `COc1ccc(Cl)cc1N1C(=O)c2cc3ccccc3n2CC1(C)C(=O)NC1CCCC1` (stereo not drawn), for which the activity change, negative = inhibition in assay [1] is 8.05%; in assay [2] it was 0%; in assay [3], 8.03%; in assay [4] it was 8.7%; in assay [5] it was 4.01%.

Turning to `CCOc1ccccc1NC(=O)N1Cc2c(sc3c2CCCC3)-n2cccc2C1c1cccc(F)c1` (stereo not drawn), the activity change, negative = inhibition is -6.89% in assay [1]; 0% in assay [2]; -0.072% in assay [3]; 0.903% in assay [4]; -1.69% in assay [5].

As for `COCCN1CC2(CCOC2)N(C2CCN(C(=O)c3ccc(OC)cc3)CC2)C1=O` (stereo not drawn), the activity change, negative = inhibition was -2.22% in assay [1]; 0.172% in assay [2]; -0.133% in assay [3]; 0.467% in assay [4]; 1.76% in assay [5].

Regarding `CCC(C)NC(=O)Cn1nc2nc(Nc3ccc(F)cc3)ccn2c1=O` (stereo not drawn), the activity change, negative = inhibition is -14.8% in assay [1]; 0% in assay [2]; -11.6% in assay [3]; -10.1% in assay [4]; -11.6% in assay [5].

With `COc1ccc(CCNC(=O)c2cc3n(n2)CC(C)(C(=O)NC2CCCCC2)N(C)C3=O)c(OC)c1` (stereo not drawn), the activity change, negative = inhibition is -5.15% in assay [1]; -6.96% in assay [2]; -0.07% in assay [3]; -6.73% in assay [4]; -5.94% in assay [5].

With `Cn1c(=O)n(C)c2cc(S(=O)(=O)NCCc3ccc(Cl)cc3)ccc21`, the activity change, negative = inhibition in assay [1] amounted to 7.17%; in assay [2] it was 0%; in assay [3], 4.82%; in assay [4], 0.275%; in assay [5], 1.4%.

With `CCOc1cccc(C2c3cccn3-c3sc4c(c3CN2C(=O)NC2CCCC2)CCCC4)c1` (stereo not drawn), the activity change, negative = inhibition in assay [1] was -4.43%; in assay [2] it was 0%; in assay [3], 1.62%; in assay [4] it was -2.42%; in assay [5] it was -0.495%.

For `Cc1nn(C)c(C)c1CCC(=O)N1CCC(C2CCN(S(C)(=O)=O)CC2)C1` (stereo not drawn), the activity change, negative = inhibition is -1.01% in assay [1]; -0.814% in assay [2]; 1.22% in assay [3]; 2.79% in assay [4]; 2.12% in assay [5].

For `CCOC(=O)c1cc2n(n1)CC(C)(C(=O)NC1CCCC1)N(Cc1ccc(C)cc1)C2=O` (stereo not drawn), the activity change, negative = inhibition in assay [1] is 1.74%; in assay [2], 0%; in assay [3], 1.66%; in assay [4], 1.1%; in assay [5], 3.61%.

In the case of `CC1(C(=O)NCc2ccccc2)Cn2c(cc3ccccc32)C(=O)N1Cc1ccc(F)cc1` (stereo not drawn), the activity change, negative = inhibition is -4.94% in assay [1]; 2.8% in assay [2]; -4.73% in assay [3]; -1.53% in assay [4]; -3.25% in assay [5].

`CN(C)C(=O)c1nc2sccn2c1-c1ccc(C(F)(F)F)cc1`: the activity change, negative = inhibition in assay [1] is -3.24%; in assay [2], -8.57%; in assay [3], -1.72%; in assay [4] it was -11.7%; in assay [5], 3.25%.

For `Cc1cc2c(cc1S(=O)(=O)N1CCN(c3ccccc3)CC1)n(C)c(=O)n2C`, the activity change, negative = inhibition in assay [1] was -5.87%; in assay [2], 0.484%; in assay [3], -15.1%; in assay [4] it was -13.3%; in assay [5] it was -9.76%.

Take `CC1(C(=O)NCc2ccccc2)Cc2ccccc2C(=O)N1Cc1ccc(C(F)(F)F)cc1` (stereo not drawn): the activity change, negative = inhibition in assay [1] was 1.04%; in assay [2], 3.54%; in assay [3] it was -3.9%; in assay [4], -4.77%; in assay [5], -4.19%.

In the case of `Cc1cccc(N2C(=O)c3cc4sccc4n3CC2(C)C(=O)NC2CCCCCC2)c1C` (stereo not drawn), the activity change, negative = inhibition came to 3.25% in assay [1]; 1.34% in assay [2]; 7.45% in assay [3]; 0.898% in assay [4]; 0.381% in assay [5].

As for `COc1ccc(Nc2nc3c(S(=O)(=O)c4ccccc4)nnn3c3ccccc23)c(OC)c1`, the activity change, negative = inhibition in assay [1] was 1.01%; in assay [2], 0%; in assay [3], 10%; in assay [4], 7.51%; in assay [5], 0.519%.

For `O=C1NCCCc2c1oc1ccc(O)cc21`, the activity change, negative = inhibition is -11.6% in assay [2], -17.9% in assay [4] and -2.44% in assay [5].

Consider `Cc1occc1C(=O)N1CCC(CCC(=O)N2CCN(c3ccccc3)CC2)CC1`, for which the activity change, negative = inhibition in assay [1] is -6%; in assay [2], -5.72%; in assay [3], -5.93%; in assay [4] it was -8.49%; in assay [5], -7.78%.

For the compound `CCC(C)NC(=O)c1ccc2c(=O)n(CCC(C)C)c3nn(Cc4ccc(F)cc4)c(=O)n3c2c1` (stereo not drawn), the activity change, negative = inhibition is 2.52% in assay [1]; 0% in assay [2]; 8.66% in assay [3]; -0.664% in assay [4]; 5.55% in assay [5].

Regarding `COc1cc(N2CCC(N3CCN(C)CC3)CC2)ccc1Nc1ncc(Cl)c(Nc2ccccc2P(C)(C)=O)n1`, the activity change, negative = inhibition is -9.53% in assay [1]; -5.07% in assay [2]; -43.8% in assay [3]; -18.6% in assay [4]; 0.47% in assay [5].

On to `CN(C)c1ccc(-c2nnc([C@H]3CCN(Cc4ccccn4)C3)o2)cc1`, for which the activity change, negative = inhibition in assay [1] is -15.7%; in assay [2], -9.03%; in assay [3], -21.3%; in assay [4], -14.7%; in assay [5], -2.43%.

`CCOC(=O)c1cc2n(n1)CC(C)(C(=O)NC1CCCC1)N(c1ccc(C)cc1Cl)C2=O` (stereo not drawn): the activity change, negative = inhibition in assay [1] was determined as 6.86%; in assay [2] it was 2.11%; in assay [3] it was 9.26%; in assay [4], 7.46%; in assay [5] it was 5.45%.

In the case of `CSc1ccc(CCN2C(=O)c3cc4ccccc4n3CC2(C)C(=O)NC2CCCC2)cc1` (stereo not drawn), the activity change, negative = inhibition was -2.64% in assay [1]; 3.07% in assay [2]; -1.08% in assay [3]; -4.11% in assay [4]; -4.19% in assay [5].

In the case of `Cc1cc2[nH]c(=O)[nH]c2cc1S(=O)(=O)Nc1ccccc1`, the activity change, negative = inhibition came out at 9.73% in assay [1]; 1.05% in assay [2]; 11.9% in assay [3]; 1.42% in assay [4]; 2.89% in assay [5].

Consider `CC1=C(C(=O)OCc2ccccc2)C(c2ccc(-c3ccccc3)cc2)NC(=O)N1CCCCCC(=O)O` (stereo not drawn), for which the activity change, negative = inhibition in assay [1] was -57.5%; in assay [2], 6.3%; in assay [3], 6.88%; in assay [4] it was -45.4%; in assay [5], 5.43%.

For the compound `COc1cccc(CN2C(=O)c3cc4sccc4n3CC2(C)C(=O)NC2CCCCCC2)c1OC` (stereo not drawn), the activity change, negative = inhibition in assay [1] was 2.4%; in assay [2], -5.81%; in assay [3] it was 7.73%; in assay [4], 0.533%; in assay [5], 3.75%.

Regarding `CCOCCCNC(=O)CCc1nnc2n(CCc3ccccc3)c(=O)c3ccccc3n12`, the activity change, negative = inhibition in assay [1] is -6.62%; in assay [2], 1.42%; in assay [3], 9.1%; in assay [4], 12.6%; in assay [5], 2.3%.

With `Cc1ccc(C)c(C(=O)Cn2nc3n(Cc4ccccc4)c(=O)c4ccccc4n3c2=O)c1`, the activity change, negative = inhibition in assay [1] is 5.69%; in assay [2], 0%; in assay [3], 12.6%; in assay [4], -9.4%; in assay [5] it was 6.42%.

For the compound `O=C(NCCc1ccc(Cl)cc1)c1cc(-c2cccs2)c2cccn2n1`, the activity change, negative = inhibition in assay [1] is -20.5%; in assay [2], -2.48%; in assay [3] it was -12.7%; in assay [4], -7.63%; in assay [5], -9.79%.

`Cc1cc(N)c2ccccc2[n+]1CCCCCCCCCC[n+]1c(C)cc(N)c2ccccc21`: the activity change, negative = inhibition in assay [1] was -14.9% and -19.9%; in assay [2], 8.45% and 10.8%; in assay [3] it was -93.9% and -95.4%; in assay [4], -48.9% and -45.3%; in assay [5], -10.3% and -6.11%.

Take `COc1ccc(/C=C/C(=O)O[C@H]2[C@H](O[C@H]3[C@@H]4C=CO[C@@H](O[C@@H]5O[C@H](CO)[C@@H](O)[C@H](O)[C@H]5O)[C@@H]4[C@@]4(CO)O[C@@H]34)O[C@@H](C)[C@H](O)[C@H]2OC(C)=O)cc1`: the activity change, negative = inhibition in assay [1] is -1.29%; in assay [2], -11.4%; in assay [3], -3.61%; in assay [4], -21.7%; in assay [5], -1.48%.

Values taken from PubChem BioAssay AID1745853 (National Center for Advancing Translational Sciences (NCATS), 2022).
